Experimental data from ChEMBL document CHEMBL5308541, “MAIP: An Open-Source Tool to Enrich High-Throughput Screening Output and Identify Novel, Druglike Molecules with Antimalarial Activity” (ACS Med Chem Lett, 2023).
Hit rate of the full screen: of about 150,000 compounds, about 540 (0.36%) showed an effect of 50% or more. The list shows a part of the results.

System: Plasmodium falciparum
Experiment: Primary screen in NF54 nanoGlo assay, in single point, at 2uM, 72h; a lower Z score goes with more inhibition
Format: functional, Erythrocyte
Conditions: timepoint 72 hour

Compound | % Inhibition | Z score
CC(C)NC(=O)C1CCN(C2CCN(Cc3cnc(N4CCCC4)s3)CC2)CC1 | -9% | 1.51
CC(C)n1cnc(C(=O)N[C@H]2C[C@H](c3cccc(F)c3)C2)c1 | 0% | 0
Cn1cc(-c2nnc(NCc3cccc(OC4CC4)c3F)o2)cn1 | 4% | -0.63
Cc1cnn(-c2cccc(N[C@H](C(=O)N3CCOCC3)C(C)C)n2)c1 | -2% | 0.39
C=CCC[C@@H](CN(C)C)Oc1ccc(C(=O)N2CCOCC2)o1 | 0% | 0.09
CC[C@H]1COCCN1C(=O)c1cccc(-c2ccc3cc[nH]c3c2)c1 | -3% | 0.59
c1ccc(OCCCCN2CCOCC2)c(CN[C@H]2CCNC2)c1 | -5% | 1.01
O[C@@H](CNC1CCC2(CC1)COC2)c1cccc(F)c1 | 8% | -1.16
COc1cccc(-c2cc(-c3c(C)noc3C)nc(N3CCN(C)CC3)n2)c1 | -12% | 2.45
c1cnc2c(-c3ccc4[nH]ncc4c3)cccc2c1 | -4% | 0.61
CN1CCN(C(=O)CN2CCC(N(C)C(=O)C3CCC(C4CC4)N3)CC2)CC1 (configuration not stated) | -5% | 0.98
COc1ccc(CO)c(-c2cnc(C3CCOCC3)o2)c1 | -7% | 1.29
CC1(C)CN(C(=O)C(C)(C)S(C)(=O)=O)C[C@@]2(CCOC2)O1 | -8% | 1.36
OC1(c2cccnc2)CCN(C2CCN(c3ccc(F)c(F)c3)CC2)CC1 | -11% | 1.84
Cc1[nH]c2ncnn2c(=O)c1CC(=O)O | -4% | 0.59
COc1ccc2c(CN3CCN(c4ccc(Cl)cn4)CC3)n[nH]c2c1 | 1% | -0.11
CC(C)c1ccc([C@@]2(C)Nc3ccccc3-c3nc(-c4cccc(F)c4)nn32)cc1 | -8% | 1.26
CC(C)[C@H]1NC(=O)[C@H](Cc2ccccc2)Nc2cc(nc(NCc3cccnc3)n2)CCNC(=O)[C@H](C)NC1=O | 4% | -0.74
Cc1nnc(OCC2CC(F)(F)C2)c2ccccc12 | -15% | 3.02
Cc1nc(-c2c(-c3ccccc3)ncn2CCN2CCCC[C@@H]2CO)c[nH]1 | 1% | -0.32
Cc1cccn2cc(C(=O)N3CCCN(c4ncnc5[nH]ccc45)CC3)nc12 | 15% | -2.71
